Publication PMC12136788
The list shows a part of the results.

T1: UNK ZnF1-6 (called full-length) (human, UniProt Q9C0B0 30-357)
T1 sequence: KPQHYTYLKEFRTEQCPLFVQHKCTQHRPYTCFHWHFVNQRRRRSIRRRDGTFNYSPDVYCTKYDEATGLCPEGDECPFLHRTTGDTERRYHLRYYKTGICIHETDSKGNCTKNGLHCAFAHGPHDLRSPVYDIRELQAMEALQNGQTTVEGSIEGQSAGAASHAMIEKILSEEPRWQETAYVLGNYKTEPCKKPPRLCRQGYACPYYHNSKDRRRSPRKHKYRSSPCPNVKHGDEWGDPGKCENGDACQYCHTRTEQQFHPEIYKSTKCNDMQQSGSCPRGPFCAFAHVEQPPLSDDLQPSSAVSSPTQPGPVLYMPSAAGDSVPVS

B1: chr1:213241217:213241334:+|CDS|ENSG00000136643|unk|total|mutant (ssRNA)
RNA: GGGAGUUCUACAGUCCGACGAUCAGUUCUCCAAGAACAUCAGAUUCCCUCAGCCGAUCAAAAAACCGCCCCAUGGAAUUCUUCCGGACCGACAGUAAGGACCGCGCAAGUGAACUCCUGGGACUUGACUUUGGAGAAAAAUUGCAACAGAGGAUUGAGCAUCA
B2: ENSG00000107863:be:win_2901|CDS|ENSG00000107863|bound_else_gene|NA|bound_elsewhere_windowed (ssRNA)
RNA: GGGAGUUCUACAGUCCGACGAUCUCAUUCACUUUACCUGUACAAAGAUAAAAGAGAGCAGACGACUCCGUCUGAGGAAGAGCAGCCCAUCAGUGUUAAUGCUUGCUUGAUAGACAUCUCUUACAGUGAGACCAAGAGGAAAAACAACAGAGGAUUGAGCAUCA
B3: chr6:75256125:75256201:-|CDS_3pUTR|ENSG00000112697|msi1_unk|FALSE|overlapping (ssRNA)
RNA: GGGAGUUCUACAGUCCGACGAUCUUUGGGGAUUGCUUACAUCGCUGUUGGAUCCAUCUCCUUCCUUCUGGGAGUUGUACUGCUAGUAAUUAAUCAUAAAUAUAGAAACAGUAGUAAUACAGCUGACAUUACCAUUUAAUUUUACAACAGAGGAUUGAGCAUCA
B4: ENSG00000050165:stop:overlap|stop_codon|ENSG00000050165|stop_codon|NA|stop_codon (ssRNA)
RNA: GGGAGUUCUACAGUCCGACGAUCAGAUGGCGCUGAGGGAGCCUGCGGCUGCCGCCGCUGCACUGCUGGGAGGGGAAGAGAUUUAGAUCUGGACCAGGCUGUGGGUAGAUGUGCAAUAGAAAUAGCUAAUUUAUUUCCCCAGGUCAACAGAGGAUUGAGCAUCA
B5: chr7:100040983:100041096:+|3pUTR|ENSG00000106261|unk|FALSE|bound_elsewhere (ssRNA)
RNA: GGGAGUUCUACAGUCCGACGAUCGAUAGCCAAGCAAAAUCAGUAAUUAUUUUAAAAUGAACAUAUGUAUUUUUAUUAACUUUUAGUUAAAUACAGAUUUUACAACGAGGUCAGCAUAAGCCUAAAUCUAUAUAGAGGGCUAACCAACAGAGGAUUGAGCAUCA
B6: chr17:28897780:28898440:-|three_prime_utr|ENSG00000167536|control|control|control (ssRNA)
RNA: GGGAGUUCUACAGUCCGACGAUCUGAAGGAAUAAUGGGUGAUUAUUUCUUCCUGAGAGUGACAGUAACCCCAGAUGGAGAGAUAGGGGUAUGCUAGACACUGUGCUUCUCGGAAAUUUGGAUGUAGUAUUUUCAGGCCCCACCCAACAGAGGAUUGAGCAUCA

The binders below were run against T1, UNK ZnF1-6 (called full-length) (assay: nsRBNS (natural sequence RNA bind-n-seq); RBNS binding buffer (assumed for nsRBNS): 25 mM Tris pH 7.5, 150 mM KCl, 3 mM MgCl2, 0.01% Triton X-100, 500 ug/ml BSA, 20 U/ml SUPERase-In, 4 C; UNK is unkempt and MSI1 is Musashi-1; names of the RNAs are library labels; protein concentration not given here; high values mean tight binding).

Binder	binding signal [enrichment R]
B1	0.721
B2	0.476
B3	3.18
B4	2.99
B5	2.5
B6	0.608
